# Experimental data published in the supplement of paper PMC7826260.
# The list shows a part of the results. One pool of 16,384 single-stranded DNAs met each Rep nickase domain in vitro for 1 h at 37 °C with 3 µM enzyme; only the middle of the 90-letter strands is printed. Uncut reads are compared with the no-enzyme pool on a log2 scale; strong cutting gives strongly negative numbers. There is no active / inactive call. Because reads are shares of a total, they shift together; uncut strands gain when others are lost, and binding without cutting may add a little.
# Key:
# Assay in all cases: uncleaved DNA left, log2 of reads against the no-enzyme library (log2 ratio); higher = less cleavage (more negative = more Rep cleavage of the k-mer); sequences stand for … in CTCGTCCG…ACCGGAGA
# [1] = test system: T1, Rep nickase domain of Muscovy duck circovirus
# T1 sequence (protein, residues 1-111, tag omitted): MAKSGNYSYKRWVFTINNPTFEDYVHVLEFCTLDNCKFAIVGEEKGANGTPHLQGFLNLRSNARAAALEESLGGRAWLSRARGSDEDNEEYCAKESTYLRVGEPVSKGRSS
# Procedure: (§1)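 A pool of 90-nt single-stranded DNAs with seven random bases just before the constant AC of the nick site (name = the seven bases) was cut by 3 µM recombinant His6-SUMO-tagged Rep nickase domain (300 nM DNA, 50 mM HEPES pH 8.0, 50 mM NaCl, 1 mM MnCl2, 1 h, 37 °C, three replicates). Uncut DNA was amplified and sequenced.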
# [2] = test system: T2, Rep nickase domain of banana bunchy top virus
# T2 sequence (protein, residues 1-94, tag omitted): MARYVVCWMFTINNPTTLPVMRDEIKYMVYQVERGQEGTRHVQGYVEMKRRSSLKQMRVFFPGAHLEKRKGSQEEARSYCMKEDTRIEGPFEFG
# Procedure: as §1
# [3] = test system: T3, Rep nickase domain of cabbage leaf curl virus
# T3 sequence (protein, residues 1-116, tag omitted): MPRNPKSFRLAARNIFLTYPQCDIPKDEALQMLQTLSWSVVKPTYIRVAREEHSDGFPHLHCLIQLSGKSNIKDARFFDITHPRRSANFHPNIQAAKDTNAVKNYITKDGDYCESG
# Procedure: as §1
# [4] = test system: T4, Rep nickase domain of chickpea chlorotic dwarf virus
# T4 sequence (protein, residues 1-124, tag omitted): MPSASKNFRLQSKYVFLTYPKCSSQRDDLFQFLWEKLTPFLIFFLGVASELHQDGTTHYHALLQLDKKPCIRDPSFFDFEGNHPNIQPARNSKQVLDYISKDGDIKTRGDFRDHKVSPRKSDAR
# Procedure: as §1
# [5] = test system: T5, Rep nickase domain of faba bean necrotic yellows virus
# T5 sequence (protein, residues 1-98, tag omitted): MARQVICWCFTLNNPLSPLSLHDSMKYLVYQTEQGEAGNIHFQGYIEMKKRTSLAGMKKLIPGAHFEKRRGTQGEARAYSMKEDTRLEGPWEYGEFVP
# Procedure: as §1
# [6] = test system: T6, Rep nickase domain of maize striate mosaic virus
# T6 sequence (protein, residues 1-117, tag omitted): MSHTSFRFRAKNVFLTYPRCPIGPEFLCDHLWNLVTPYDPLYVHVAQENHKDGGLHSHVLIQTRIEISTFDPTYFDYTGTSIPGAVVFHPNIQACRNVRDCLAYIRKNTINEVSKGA
# Procedure: as §1
# [7] = test system: T7, Rep nickase domain of porcine circovirus 2
# T7 sequence (protein, residues 2-116, tag omitted): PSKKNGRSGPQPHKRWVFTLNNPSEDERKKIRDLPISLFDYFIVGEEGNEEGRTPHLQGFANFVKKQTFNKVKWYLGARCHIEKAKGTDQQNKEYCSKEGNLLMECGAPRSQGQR
# Procedure: as §1
# [8] = test system: T8, Rep nickase domain of tomato golden mosaic virus
# T8 sequence (protein, residues 1-124, tag omitted): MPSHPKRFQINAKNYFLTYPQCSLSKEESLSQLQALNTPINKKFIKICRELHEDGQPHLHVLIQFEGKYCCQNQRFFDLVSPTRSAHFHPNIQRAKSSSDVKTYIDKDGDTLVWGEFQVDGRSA
# Procedure: as §1
# [9] = test system: T9, Rep nickase domain of tomato yellow leaf curl virus
# T9 sequence (protein, residues 1-136, tag omitted): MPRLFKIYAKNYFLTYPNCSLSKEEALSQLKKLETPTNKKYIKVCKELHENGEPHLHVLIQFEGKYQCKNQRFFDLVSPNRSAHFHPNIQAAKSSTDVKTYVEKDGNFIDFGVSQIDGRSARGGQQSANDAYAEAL
# Procedure: as §1
# [10] = test system: T10, Rep nickase domain of wheat dwarf virus
# T10 sequence (protein, residues 1-137, tag omitted): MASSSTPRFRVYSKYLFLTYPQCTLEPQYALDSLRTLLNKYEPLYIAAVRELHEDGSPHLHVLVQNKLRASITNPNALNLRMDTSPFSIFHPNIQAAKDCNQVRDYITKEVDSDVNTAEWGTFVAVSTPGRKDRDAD
# Procedure: as §1
Sequence,uncleaved DNA left (log2) [1],uncleaved DNA left (log2) [2],uncleaved DNA left (log2) [3],uncleaved DNA left (log2) [4],uncleaved DNA left (log2) [5],uncleaved DNA left (log2) [6],uncleaved DNA left (log2) [7],uncleaved DNA left (log2) [8],uncleaved DNA left (log2) [9],uncleaved DNA left (log2) [10]
TATAGCA,0.0143,-0.0621,-0.48,-1.93,0.00516,-1.15,-0.225,-0.109,0.0812,0.00344
GAAAATT,0.0652,0.0485,-2.4,-2.46,0.00693,0.915,-1.85,-0.265,0.0353,-0.853
CAGGTCT,0.0225,-0.0169,-0.0317,-1.78,-0.0532,0.686,-1.57,0.0266,-0.0159,-0.0241
AACGCAA,0.0759,-0.0615,-0.174,-0.472,0.00633,-0.407,0.0465,-0.0161,-0.11,-0.069
ATTGTTA,-0.0368,-0.0379,-0.187,-1.13,0.019,-0.688,-0.354,0.0053,0.0708,0.0508
CCTCCAC,0.148,0.0504,-0.0807,-0.367,-0.00229,-0.625,0.178,-0.0345,0.0787,-0.051
GAGGATG,-0.036,-0.088,0.0608,0.502,-0.124,0.682,0.00263,-0.0435,-0.0991,-0.0783
CGCCGTC,2.15e-05,-0.0687,-0.00202,-0.156,-0.175,-0.274,-0.0999,-0.105,0.0515,-0.0837
TCCTAAC,0.0973,0.0484,-0.0536,-1.38,-0.0459,-0.575,0.107,0.0823,0.0683,0.0104
CGTATAA,0.11,0.0189,-0.0132,-0.048,0.0375,-0.414,0.0406,0.0436,0.164,0.161
CTCGTCC,0.0578,-0.0379,0.312,0.742,-0.0316,1.12,-0.178,0.0537,0.0486,-0.031
ACTTCGC,0.0141,-0.0135,-0.726,-0.77,-0.0427,-1.16,0.00528,-0.0598,-0.00848,-0.000651
TCTCTCC,0.0957,-0.0776,0.00809,0.132,-0.0444,1.13,0.0871,-0.0166,-0.0913,-0.0654
TCAGTGA,-0.0232,-0.0764,-0.219,-0.338,-0.0207,-0.83,0.0981,-0.063,-0.0351,-0.0262
TGACGCG,-0.106,-0.134,-0.903,0.1,-0.0357,-0.703,-0.0611,-0.142,-0.121,-0.206
GTTATAT,0.0589,0.115,0.345,0.944,0.0706,1.81,0.0853,0.159,0.109,0.147
TCAATTG,0.0614,0.0487,-0.428,-0.598,-0.00656,-1.18,0.141,0.0766,0.00361,-0.0992
TACGGGA,0.00936,-0.0728,0.312,0.351,-0.033,0.571,0.0579,0.052,0.00199,-0.0504
AGGGTCT,-0.0281,0.0195,0.18,0.703,-0.112,1.27,-0.0611,0.0149,-0.0224,-0.112
CTCTAGA,0.0133,0.0572,-0.189,-0.287,0.0254,-0.892,0.0869,0.098,-0.0061,-0.0422

Sequence,uncleaved DNA left (log2) [1],uncleaved DNA left (log2) [2],uncleaved DNA left (log2) [3],uncleaved DNA left (log2) [4],uncleaved DNA left (log2) [5],uncleaved DNA left (log2) [6],uncleaved DNA left (log2) [7],uncleaved DNA left (log2) [8],uncleaved DNA left (log2) [9],uncleaved DNA left (log2) [10]
ATACCCC,-0.0446,0.00644,0.138,0.0739,0.041,0.0381,-0.478,0.0152,-0.0777,0.108
ATCTAGC,0.15,0.000774,-0.421,-0.495,-0.0486,-1.08,0.14,-0.0237,0.114,0.099
TAGCATT,0.0815,-0.0083,-0.729,-2.36,-0.0724,0.25,-3.58,-0.268,0.119,0.0305
GGAGGAA,0.0863,0.0825,0.671,1.56,0.0398,2,0.196,0.209,0.00587,0.147
AATCACG,0.00731,-0.0152,-0.834,0.00818,0.00256,-1.11,0.148,0.0324,0.00436,-0.0147
TTCGAGA,0.251,0.173,0.956,1.41,0.166,1.67,0.317,0.221,0.128,0.257
ACAAAAG,0.106,0.093,-0.686,0.296,0.172,-0.683,0.284,0.0785,0.156,0.0749
CACGCCT,-0.231,-0.229,-0.773,-2.5,-0.111,-0.841,-0.354,-0.22,-0.077,-0.24
ATCCTGG,0.0172,-0.136,-0.154,-0.185,-0.029,-0.772,0.158,0.0183,-0.0854,-0.138
TATCGTT,-0.645,-0.506,-1.92,-3.02,-0.0333,-0.835,-3.01,-0.327,-0.205,-0.36
ATGTGTT,-3.16,-1.51,-0.401,-1.81,-2.06,0.427,-3.55,-0.0107,-0.0346,-0.276
AAGAGCA,-0.0225,0.0612,-0.147,-0.595,0.00347,-0.601,-2.22,0.14,0.119,0.0182
TTGCTGG,0.123,-0.0254,-0.395,-0.295,0.0428,-0.604,0.191,0.0394,0.101,0.0302
CTCTGAC,0.0826,0.0452,0.0276,0.159,0.119,-0.115,0.144,0.00621,0.12,0.049
CAGCCCA,0.0517,-0.0702,-0.141,-2.01,-0.027,-0.324,-0.713,-0.0525,-0.0476,-0.135
TAGACAC,0.0865,0.15,0.405,0.814,0.0555,0.859,0.0701,-0.052,0.112,0.267
AATTTGC,-0.0796,0.0148,-0.805,-0.116,0.0336,-1.08,0.092,-0.106,-0.000832,-0.134
GATCGGA,0.113,0.0125,0.256,0.633,-0.00138,0.43,0.0427,0.0517,0.001,0.128
GTTATAC,-0.0984,-0.0564,0.319,0.798,-0.062,1.66,0.00189,0.0559,0.0422,0.0462
TGCGCAG,0.0617,0.0278,-0.14,0.12,0.0885,0.25,0.21,0.0328,-0.0402,-0.0449

Sequence,uncleaved DNA left (log2) [1],uncleaved DNA left (log2) [2],uncleaved DNA left (log2) [3],uncleaved DNA left (log2) [4],uncleaved DNA left (log2) [5],uncleaved DNA left (log2) [6],uncleaved DNA left (log2) [7],uncleaved DNA left (log2) [8],uncleaved DNA left (log2) [9],uncleaved DNA left (log2) [10]
TGTAAGA,-0.0138,-0.0305,0.0781,0.00365,0.0591,-0.728,0.0581,-0.0253,0.0375,-0.0405
TGAATCC,-0.0733,-0.0533,0.177,0.247,0.00773,0.253,-0.054,-0.126,-0.0388,-0.0374
AATAAGT,-0.00644,-0.113,-0.0774,-1.14,0.0632,-1.03,-1.69,0.0965,0.0101,-0.121
GTCTCTT,-0.36,-0.0912,0.269,0.35,-0.0556,1.6,-1.33,-0.175,-0.0726,-0.0258
TGACGGA,-0.043,-0.154,0.0379,0.325,-0.111,0.332,-0.00609,-0.0373,-0.189,-0.00141
TGTTCGG,0.15,-0.0367,0.436,1.32,-0.0635,1.89,0.103,0.0091,-0.0781,0.0483
TAATACG,-0.0056,0.0365,-0.827,-1.28,0.0792,-1.13,-0.232,0.127,0.0296,-0.00144
ATACTGT,0.0466,-0.0632,-0.155,-0.159,0.0714,0.208,0.065,0.0404,-0.0911,0.076
ATACTCC,-0.00251,-0.121,-0.051,-0.141,0.0242,0.62,0.0995,-0.0189,-0.088,-0.118
GGGAAAG,0.0615,0.0927,0.858,2.08,-0.0955,2.15,0.144,0.11,0.00945,0.228
AGCTCTA,-0.0131,0.0317,-0.0148,-0.17,-0.0482,0.341,-0.871,0.0697,0.0992,0.208
CGGTGGA,0.0439,-0.0215,0.31,0.607,0.193,0.547,0.132,0.0997,-0.0657,-0.0155
ACGCGCA,-0.0779,-0.104,-0.765,-0.802,-0.022,-1.02,-0.141,-0.154,-0.0523,-0.272
CGACTGC,0.0296,0.00191,-0.0757,0.549,0.00866,1.64,0.0625,-0.0962,-0.0277,0.0302
TTGGCGA,-0.0409,-0.167,-0.75,-0.181,-0.0466,-0.8,0.0936,-0.234,-0.116,-0.227
GCGTGAG,-0.0916,-0.129,-0.484,-0.202,-0.228,-0.976,0.0936,-0.0567,-0.0299,-0.00578
AGGGAGA,0.137,0.0702,0.39,1.33,0.228,1.38,0.205,0.215,0.111,0.116
ATGCTCG,0.0212,-0.0534,-0.658,-0.523,0.0104,-0.926,0.173,-0.0227,-0.0443,-0.0944
TTTCTTT,-0.136,-0.0513,0.0703,-1.72,0.0498,-0.39,-0.686,-0.0851,0.0905,-0.0354
GGGGGAT,0.0255,0.0768,0.732,1.96,-0.027,2.21,0.152,-0.0713,0.00345,0.139
